In article PMC4336329 (PLoS ONE, 2015):
Among all 310,000 compounds or so, about 2,200 (0.71%) showed an effect of 50% or more. Effects have a minus sign here. Some of the results follow.

Molecular target: human ether-à-go-go-related gene (hERG) potassium channel (human, UniProt Q12809)
Assay: primary screen, population patch clamp on CHO cells stably expressing hERG

human ether-à-go-go-related gene (hERG) potassium channel, sequence (Q12809 whole entry, looked up): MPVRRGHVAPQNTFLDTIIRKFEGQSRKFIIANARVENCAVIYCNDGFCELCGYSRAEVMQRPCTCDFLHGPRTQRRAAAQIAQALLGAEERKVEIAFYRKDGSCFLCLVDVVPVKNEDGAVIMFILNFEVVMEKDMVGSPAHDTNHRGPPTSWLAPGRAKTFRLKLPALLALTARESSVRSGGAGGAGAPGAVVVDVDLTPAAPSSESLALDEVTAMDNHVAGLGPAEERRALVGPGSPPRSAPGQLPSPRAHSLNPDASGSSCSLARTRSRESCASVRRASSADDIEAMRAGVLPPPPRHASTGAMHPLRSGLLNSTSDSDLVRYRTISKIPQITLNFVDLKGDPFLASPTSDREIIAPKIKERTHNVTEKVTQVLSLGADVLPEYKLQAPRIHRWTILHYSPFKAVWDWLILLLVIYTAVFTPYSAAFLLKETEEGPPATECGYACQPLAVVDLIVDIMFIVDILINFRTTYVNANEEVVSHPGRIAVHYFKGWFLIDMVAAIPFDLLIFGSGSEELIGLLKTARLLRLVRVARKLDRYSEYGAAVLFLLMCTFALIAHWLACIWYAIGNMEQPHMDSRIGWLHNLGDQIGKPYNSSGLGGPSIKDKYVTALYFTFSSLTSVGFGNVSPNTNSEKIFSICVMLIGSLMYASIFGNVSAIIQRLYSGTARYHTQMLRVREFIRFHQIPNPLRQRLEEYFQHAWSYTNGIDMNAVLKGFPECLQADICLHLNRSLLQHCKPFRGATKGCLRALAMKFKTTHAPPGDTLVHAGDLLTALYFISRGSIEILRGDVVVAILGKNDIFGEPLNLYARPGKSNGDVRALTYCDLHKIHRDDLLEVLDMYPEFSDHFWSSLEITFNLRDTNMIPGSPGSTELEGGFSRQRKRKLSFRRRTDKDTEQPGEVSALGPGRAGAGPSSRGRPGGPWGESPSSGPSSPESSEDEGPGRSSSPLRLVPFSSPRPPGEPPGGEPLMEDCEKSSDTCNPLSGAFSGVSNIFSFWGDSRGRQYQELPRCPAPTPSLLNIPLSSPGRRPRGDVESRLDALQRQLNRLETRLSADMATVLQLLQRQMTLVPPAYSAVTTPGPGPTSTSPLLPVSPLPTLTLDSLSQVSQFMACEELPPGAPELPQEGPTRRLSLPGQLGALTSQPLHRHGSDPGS

Going from COC(=O)CC1(CC(=O)OC)C(=O)NC(=O)NC1=O to COc1ccc(S(=O)(=O)N2CCOC2CNC(=O)C(=O)NCc2ccc(F)cc2)cc1OC (centres unmarked), the “hERG current change (%, negative = inhibition) at 1uM” value falls from 12.8% to 9.37%.

Compared with O=C(N/N=C/c1ccccn1)c1cccc(NC(=O)c2ccc(Cl)cc2)c1, CCOc1ccccc1C(=O)Nc1ccc(NC(=O)c2ccccc2)cc1 is higher in “hERG current change (%, negative = inhibition) at 1uM” value: 7.76% for the first, 13.6% for the second.

Going from Fc1ccc(CCNCc2ccc(Br)cc2)cc1 to O=C(CN1CCN(Cc2ccc(F)cc2Cl)CC1)NCc1ccccc1, the “hERG current change (%, negative = inhibition) at 1uM” value rises from -9.83% to -5.2%.

First: CCC(=O)N1CCN(c2ccccc2NC(=O)c2ccc(-c3cccc([N+](=O)[O-])c3)o2)CC1
Second: O=C(Nc1ccccc1Oc1ccccc1)c1cc([N+](=O)[O-])ccc1Cl
The “hERG current change (%, negative = inhibition) at 1uM” value of the first is lower: -3.2% for the first, 12.7% for the second.

First: CCCS(=O)(=O)c1nc(S(=O)(=O)c2ccc(Cl)cc2)c(N2CCC(O)CC2)s1
Second: CC1Sc2ccc(S(=O)(=O)N3CCC(C(=O)NCC(C)c4ccccc4)CC3)cc2NC1=O (centres unmarked)
The “hERG current change (%, negative = inhibition) at 1uM” value of the first is higher: 13.1% for the first, -1.4% for the second.

First: CCCOc1ccc(C(=O)CCNc2ccc(C)c(Cl)c2)cc1
Second: COc1ccc(OCc2cc(C(=O)NCCCc3ccccc3)no2)c(Cl)c1
The “hERG current change (%, negative = inhibition) at 1uM” value of the first is lower: -1.97% for the first, 0.936% for the second.

Compared with Cc1cc(NS(=O)(=O)c2cccs2)no1, O=C(NCc1cccs1)c1ccncc1 is lower in “hERG current change (%, negative = inhibition) at 1uM” value: 9.44% for the first, 5.76% for the second.

Compared with COc1ccc2c(c1)c(=O)oc1cc(OCC(=O)N3CCCC(C)C3)ccc12 (centres unmarked), COc1ccc(C2C(C(=O)N3CCN(c4ccccn4)CC3)CCC(=O)N2c2ccc(OC)cc2)cc1 (centres unmarked) is lower in “hERG current change (%, negative = inhibition) at 1uM” value: 3.3% for the first, -0.548% for the second.

Compared with C=CCSc1[nH]c(=O)cc(C)c1C(N)=O, CCOC(=O)c1sc2nc(C)nc(SCC(N)=O)c2c1C is higher in “hERG current change (%, negative = inhibition) at 1uM” value: 5.84% for the first, 14.2% for the second.

Compared with CC(=O)c1cc(CN2CCN(CC=C(C)C)C(CCO)C2)cs1 (centres unmarked), Cc1cc(C)c2c(c1)c(C)cc1nnc(SCC(=O)c3cccs3)n12 is lower in “hERG current change (%, negative = inhibition) at 1uM” value: 13.4% for the first, 2.84% for the second.

Going from CCOC(=O)c1csc(NC(=O)CSc2nnnn2-c2cccc(OC)c2)n1 to CCc1nnc(NC(=O)CSc2nnc(Cc3cc(=O)[nH]c(=O)[nH]3)n2-c2cccc(OC)c2)s1, the “hERG current change (%, negative = inhibition) at 1uM” value falls from 12.2% to 4.49%.

Cc1ccc2c(=O)cc(C(=O)NC3CCS(=O)(=O)C3)oc2c1 (centres unmarked) and O=C(c1sc2ccccc2c1Cl)N(Cc1ccccc1)C1CCS(=O)(=O)C1 (centres unmarked) are the same in “hERG current change (%, negative = inhibition) at 1uM” value: 13.1% for the first, 13.1% for the second.

Compared with O=C(Nc1cccc2c1[nH]c1ccccc12)C(F)(F)F, CCOC(=O)C(O)(c1ccc(N=c2ccccn2C)cc1)C(F)(F)F (centres unmarked) is higher in “hERG current change (%, negative = inhibition) at 1uM” value: 0.169% for the first, 9.31% for the second.

First: CC1CCN(C2(O)C(=O)Nc3ccc([N+](=O)[O-])cc32)CC1 (centres unmarked)
Second: CC1CCN(CC(C)CNC(=O)c2cc(-c3ccccn3)nc3ccccc23)CC1 (centres unmarked)
The “hERG current change (%, negative = inhibition) at 1uM” value of the first is higher: 0.801% for the first, -34.9% for the second.

First: COCCNC(=O)c1onc(CSc2cccc(C)c2)c1C(=O)O
Second: COc1ccc(-c2nc(CSCC(=O)N3CCc4ccccc43)c(C)o2)cc1OC
The “hERG current change (%, negative = inhibition) at 1uM” value of the first is higher: 10.3% for the first, 7.64% for the second.

First: O=C(CSc1nc2ccccc2c(=O)[nH]1)Nc1nc(-c2ccc(Br)cc2)cs1
Second: O=C(Nc1ccc([N+](=O)[O-])cn1)c1cc(-c2cccc(Cl)c2)nc2ccccc12
The “hERG current change (%, negative = inhibition) at 1uM” value of the first is higher: 5.56% for the first, 3.09% for the second.

Compared with Cc1c(C#N)c(N=CN(C)C)c(C(=O)c2ccc(Br)cc2)n1-c1ccc(Cl)cc1, COc1ccc(NC(C)C(=O)N/N=C/c2c(O)ccc3ccccc23)cc1 (centres unmarked) is higher in “hERG current change (%, negative = inhibition) at 1uM” value: 14% for the first, 18% for the second.

Going from c1ccc2[nH]c(C3CC3)nc2c1 to Br.CC1(C(=O)CSc2nc3ccccc3s2)CCC(=O)O1 (centres unmarked), the “hERG current change (%, negative = inhibition) at 1uM” value falls from 12% to 4.75%.

Compared with Cc1nnc2sc(-c3ccncc3)nn12, Cc1cc([N+](=O)[O-])nn1CC(=O)Nc1ccc(Cc2ccncc2)cc1 is lower in “hERG current change (%, negative = inhibition) at 1uM” value: 6.89% for the first, 5.04% for the second.

First: N#CC(C#N)=C1C=CC=CN1/C(=C\c1ccccc1Cl)C(=O)c1ccccc1
Second: COc1ccccc1C1CC(c2ccccc2)=NN1C(=O)c1ccccc1 (centres unmarked)
The “hERG current change (%, negative = inhibition) at 1uM” value of the first is higher: 19.2% for the first, 10.4% for the second.

Compared with CC(C)NC(=O)CCCc1c[nH]c2ccccc12, CCOC(=O)c1cnn(-c2ccccc2)c1NC(=O)CCl is higher in “hERG current change (%, negative = inhibition) at 1uM” value: 4.22% for the first, 12.8% for the second.

First: CC[C@@H](CO)NC(=O)[C@@H]1C=C2c3cccc4c3c(cn4C)C[C@H]2N(C)C1.O=C([O-])/C=C\C(=O)[O-]
Second: Cc1nn(C)c(C)c1S(=O)(=O)N1CCC(C(=O)NC2CCCc3ccccc32)CC1 (centres unmarked)
The “hERG current change (%, negative = inhibition) at 1uM” value of the first is higher: 4.58% for the first, 3.25% for the second.

Compared with Cc1cc(C)c(S(=O)(=O)N2CCCC(C(=O)NCc3ccncc3)C2)c(C)c1 (centres unmarked), O=C(O)C1CCCN(S(=O)(=O)c2ccc3c(c2)OCCO3)C1 (centres unmarked) is higher in “hERG current change (%, negative = inhibition) at 1uM” value: 0.443% for the first, 25% for the second.

First: N#Cc1cc2ccccc2n2nnnc12
Second: COc1ccc(-c2ccc3ccccc3n2)cc1
The “hERG current change (%, negative = inhibition) at 1uM” value of the first is lower: 9.51% for the first, 13.5% for the second.

First: COCCn1c(SC(C)C(=O)NC2CCCCC2C)nc2ccccc2c1=O (centres unmarked)
Second: COC(=O)c1ccc(C(=O)OC)c(NC(=O)COC(=O)C2CCCCC2)c1
The “hERG current change (%, negative = inhibition) at 1uM” value of the first is higher: 10.9% for the first, 8.49% for the second.

Going from COc1ccc2[nH]c3c(NCCCOC(C)C)ncnc3c2c1 to CCOC(=O)C(NC(=O)c1ccc(F)cc1)(Nc1nnc(C)s1)C(F)(F)F (centres unmarked), the “hERG current change (%, negative = inhibition) at 1uM” value falls from 22.8% to 5.12%.

Compared with C/C(Cc1ccccc1)=N/NC(=O)CCCC(=O)N/N=C(/C)Cc1ccccc1, O=C(O)c1ccc(NS(=O)(=O)c2cc(Cl)ccc2Cl)cc1O is lower in “hERG current change (%, negative = inhibition) at 1uM” value: 13.5% for the first, 4.19% for the second.

First: Nn1c(SCC(=O)Nc2ccc3c(c2)OCO3)nnc1C(F)(F)F
Second: O=C(NCCc1ccc2c(c1)OCCO2)c1cc(F)cc(F)c1
The “hERG current change (%, negative = inhibition) at 1uM” value of the first is higher: 9.88% for the first, 0.314% for the second.
